The whole screen tested about 150,000 compounds, of which about 540 (0.36%) showed an effect of 50% or more. The list shows a part of the results.
These compounds were tested on Plasmodium falciparum (assay: Primary screen in NF54 nanoGlo assay, in single point, at 2uM, 72h; a lower Z score goes with more inhibition). Conditions: timepoint 72 hour.
Format: functional, Erythrocyte

Compound | % Inhibition | Z score
CCC(=O)N1CCCC(C(=O)N2CC3CCCC3C2)C1 (stereo unspecified) | -2% | 0.26
Cc1ccc2c(c1)C(C)(C)[C@@]1(/C=C/c3ccccc3)NC(=O)CCN21 | 10% | -1.34
Cn1cc(-c2cc(-c3cnn(C)c3)n(Cc3cccc(Cl)c3)n2)cn1 | 6% | -0.73
CC(=O)N1CCN(CCc2ccccc2)[C@@H]2CS(=O)(=O)C[C@@H]21 | -8% | 0.98
CC(C)(C)c1cc(C[C@@H]2C[C@H](NS(=O)(=O)c3ccccc3)C2(C)C)no1 | -3% | 0.39
CCCNC(=O)[C@H]1c2ccccc2CC(=O)N1CCC | 1% | -0.26
COc1ccc(C(=O)C2CCN(c3ncc(C)s3)CC2)cc1 | -7% | 0.95
Cc1ccccc1C(=O)NCCn1ccc(-c2cccs2)n1 | 0% | -0.09
Nc1nonc1-n1nncc1-c1ccc(Cl)s1 | 2% | -0.28
Cc1cc(C(=O)N2CCN(C[C@H](OCc3ccc(C#N)cc3)c3cccc(N4CCCC4)c3)CC2)n(C)n1 | -9% | 1.02
Cc1cc(C(=O)N[C@H](c2cccnc2)C2CCOCC2)n(C)n1 | -10% | 1.93
CCOc1ccc(Cn2c(Oc3ccc(Cl)cc3C3CCCCC3)nc3c2c(=O)n(C)c(=O)n3C)cc1OCC | -6% | 0.76
Cc1cc(C2CC2)nc(NS(=O)(=O)c2cccc3nsnc23)n1 | -7% | 0.56
O=C(Cn1cnc(C2CC2)cc1=O)N1CCC(Oc2nncs2)CC1 | -10% | 1.52
Cc1ccc([C@H](CNC(=O)Nc2ncn(C)n2)N2CCCC2)o1 | 1% | -0.16
CC1OCCC1NCc1ccnc(OCC(F)F)c1 (stereo unspecified) | -13% | 1.65
CC(=O)N1C(c2ccccc2)c2[nH]c3ccccc3c2C[C@H]1C(=O)O (stereo partly specified) | -16% | 2.1
CC(C)N(C)c1ccc(CN2CCN([C@@H](C)C(=O)NC3CCCC3)CC2)cn1 | -5% | 0.48
c1ccc(Cc2ccc(Oc3ncnc4c3CCC4)cc2)cc1 | -15% | 1.79
Cc1cc(CNC(=O)Nc2nc(C3CC3)ns2)cc(N)n1 | 0% | -0.04
COCc1noc(CCc2c(C)[nH]c(=O)c(C#N)c2C)n1 | -1% | 0.07

Compound | % Inhibition | Z score
O=C(NCc1cccc(Br)c1)c1ccc(Oc2nccnc2N2CCCCC2)cc1 | -8% | 1.22
Cc1cccc(N(CC(C)(C)C)C(=O)COC[C@H]2CCCO2)n1 | -7% | 0.94
COCCN(Cc1c(C)nn(-c2cccc(F)c2)c1N1CCN(C)CC1)C(=O)CC(C)(C)C | 8% | -0.98
COc1ccc(C)cc1NC(=O)CNC(=O)c1sc(Cc2ccc(F)cc2)nc1C | 3% | -0.31
Cc1cccc(S(=O)(=O)N2CCc3nc(N4CCCC4)nc(N(C)C)c3C2)c1 | -7% | 0.73
CCc1c(C)nn(Cc2nc(CC(N)=O)n[nH]2)c1C | 12% | -2.25
C=CCC[C@@H](CN(C)Cc1cccnc1)Oc1ncc(F)c(N(C)C)n1 | -8% | 1.44
Cc1ccc(-c2csc3ncnc(N4CC([C@H](C)O)C4)c23)cc1 | -2% | 0.46
CCC(C)NC(=O)C(NC(=O)c1cccc(C)c1)C1CCN(C(=O)C(C)C)CC1 (stereo unspecified) | 2% | -0.37
CCOC(=O)N1CCC2(CC1)N=C(c1ccc(Cl)cc1)C[C@@H](c1cccc(OCC)c1O)N2 | -19% | 2.12
CCC1(CNc2nccc(N(C)C)n2)CCC1 | -16% | 1.74
COc1ccc(Cl)cc1-c1cc(C)c(C)[nH]c1=O | 6% | -0.9
Cc1cc(=O)c2ccccc2n1CC(=O)N[C@@H](C)Cc1cnccn1 | -8% | 1.43
Cc1cc(=O)[nH]c(-n2nc(C3CC3)cc2NC(=O)C(c2ccccc2)c2ccccc2)n1 | 86% | -11.5
Cc1cccc(CC(=O)N2CC[C@H]3N(C)S(=O)(=O)CC[C@]3(C(=O)N3CCCC3)C2)c1 | -4% | 0.53
CCOc1ccnc(OCC)c1Br | -3% | 0.39
COc1ccc2cc(C(=O)N3CCC(CC(=O)N4CCCCC4)CC3)[nH]c2c1 | -16% | 1.45
COc1ccc(/C=C/CN(CCN(C)C)C[C@H]2CCCO2)cc1 | -17% | 2.33
COc1ccc(OC)c(-c2nn(-c3ccccc3)cc2C(=O)N(C)c2ccccc2)c1 | -3% | 0.39
COc1cc(CN(C)S(=O)(=O)c2c(N)noc2C)sn1 | 2% | -0.48
CC(C)(C)N1Cc2cc(Cl)ccc2OCC1=O | -2% | 0.19

Compound | % Inhibition | Z score
CC(C)(C)OC(=O)NCC1(C(=O)O)CCCC1 | -13% | 1.72
O=C1CC(C(=O)N2CCOc3cccc(Br)c3C2)=NN1 | -11% | 2.13
COc1cccc(NC(=O)C2CCN(c3c(-n4c(C)ccc4C)c(C)nn3-c3ccccc3)CC2)c1 | 13% | -1.85
CCCS(=O)(=O)N1CCC(CNC(=O)CCn2cccn2)CC1 | -23% | 2.07
CCCN(Cc1ccccc1)Cc1nc2ccccc2o1 | -7% | 0.57
CCOc1ccc(OCc2nc(C)n(CC)n2)cc1 | -9% | 1.26
CC(C)[C@@H](c1ccccc1Cl)N(C)C(=O)CN1CCCS1(=O)=O | -7% | 0.74
Cc1[nH]c(CN2CCOc3ccc(CO)cc3C2)cc1C#N | -13% | 1.69
CN(C)S(=O)(=O)c1ccc2c(c1)CCN2S(=O)(=O)c1ccc2ccccc2c1 | -7% | 0.97
O=C(Nc1ccc(N2CCC(N3CCCCC3)CC2)cc1C(=O)O)c1ccccc1Cl | 31% | -0.52
c1cc(-c2nc3c(c(N[C@@H]4COC5(CCCCC5)C4)n2)CNC3)ccn1 | -12% | 2.1
O=C(COc1ccccc1)N[C@@H](c1ccsc1)c1cccs1 | -4% | 0.76
COc1ccc(C(=O)N2C[C@@H]3CC[C@H]2CN(S(=O)(=O)N(C)C)C3)o1 | -9% | 1.74
CCN1CCCC1CN1CC(C(=O)N[C@H](CC(C)C)C(=O)O)CC1=O (stereo partly specified) | 8% | -1.01
Oc1ccccc1-c1cnc(C(F)(F)F)s1 | 93% | -17.09
CCCOC(=O)N1CCN(Cc2cnn(CC)c2)[C@@H]2CS(=O)(=O)C[C@@H]21 | -12% | 2.41
COc1cccc(CNCCN2CCCC2=O)c1OC[C@@H](O)CN1CCOCC1 | -6% | 0.93
O=C(Nc1ccccc1)C1CCN(Cc2cnc(C3OCCO3)s2)CC1 | -13% | 1.48
CCC(=O)Nc1ccc2c(c1)CN(C(=O)c1cccc(Cl)c1)[C@H](C(=O)N1CCCC1)C2 | -8% | 1.28
COc1cccc(F)c1-c1cnn(CC2CC2)c1 | -15% | 1.35
CC(C)CNc1nc(Nc2ccc(F)cc2)c2nn[nH]c2n1 | -2% | 0.29

Compound | % Inhibition | Z score
Cc1cc(C(=O)N2CC(C)(C)Oc3cc(Br)ccc32)ncn1 | -9% | 1.36
CNc1nc2c(c(C(=O)N3CCCC3)n1)CN(C(=O)N(C)c1ccccc1)CC2 | -10% | 1.96
Cc1ccc(OCCN(C)C(=O)NCC2(Cn3ccnc3)CC2)c(C)c1 | -5% | 1
CCOc1ccc(NC(=O)Cn2nc3c(N(C)C)nc4ccccc4n3c2=O)cc1 | -13% | 1.82
Cn1ccnc1[C@H](C1CC1)n1cnc2cccc(F)c2c1=O | -2% | 0.32
CN(C(=O)CCC(F)(F)F)c1ccc(Br)cc1F | -3% | 0.44
COc1ccc(S(=O)(=O)N2CCCc3ccccc32)cc1NC(=O)c1ccc(Cl)cc1 | -29% | 3.41
CCc1nnc(C(=O)N[C@H](CO)[C@@H](C)O)s1 | -5% | 0.97
CCC1(CC)C(NC(=O)Cc2cc(C)[nH]n2)C(C)C1OC (stereo unspecified) | -7% | 1.09
c1cc(-c2nccn2CC[C@H]2CCCCO2)cc(-n2cccn2)c1 | 0% | 0.04
Cc1ccc(Oc2nc(N3CCC(C)CC3)nc3c2CN(S(=O)(=O)c2cccc(C)c2)CC3)cc1 | -2% | 0.36
Cc1nc(CNC(=O)NCCc2csc(-c3ccccc3)n2)no1 | -9% | 1.47
COc1ccccc1Oc1cn[nH]c1-c1ccc(OCc2ccccc2C)cc1O | -7% | 0.65
Cc1ccn(CCC(=O)Nc2cccnc2)n1 | -1% | 0.08
CC(C)Oc1ncccc1C(=O)N1CCS(=O)(=O)c2ccccc2C1 | -11% | 2.16
O=C(C1CCC1)N1CC(n2ccnc2)C1 | 1% | -0.25
CC(C)[C@H](OC(=O)c1cc[nH]n1)C(=O)N1CCc2ccccc2C1 | -11% | 1.63
Fc1ccccc1[C@H](c1nnc(-c2ccccc2)o1)N1CCC2(CC1)OCCO2 | -11% | 1.16
CCN1CCN(CCN2CC3(CCN(Cc4ccccc4C#N)CC3)OC2=O)CC1 | 2% | -0.49
O=C1NC2(CCCC2)C(=O)N1Cc1cc(-c2ccc(Cl)cc2)no1 | -12% | 1.37

Reference: ChEMBL document CHEMBL4888484, “Replenishing the malaria drug discovery pipeline: Screening and hit evaluation of the MMV Hit Generation Library 1 (HGL1) against asexual blood stage Plasmodium falciparum ,using a nano luciferase reporter read-out” (2022)
